# Laboratory results published in the supplement of paper PMC8728848.
# The other results are listed elsewhere or left out.
# B1: PpFlo2 (Pichia pastoris) (protein)
# chain: MGSSHHHHHHSSGLVPRGSHMDDSGNGDNSDTAYGCDITTNAVDGFDATIYQYNANDLRLIRDPTFMSTGYLGRNVLNKISGVTVPGFNIWNPSSRTATVYGVKNVNYYNMVLELKGYFKADVSGDYKLTLSHIDDSSMLFFGKETAFKCCDAGSIPLNEAPTDYSLFTIKPSNQVNSEVISATQYLEAGKYYPVRIVFVNALERARFDFKLTIPSGAVLDDFQNYIYQFGDLDENSCHE
# Legend:
# Test in all cases: glycan array binding signal (z-score within array); higher = stronger binding
# Conditions in all cases: glycan notation: IUPAC condensed, linker removed
# [1] = target: Fuc(a1-2)Gal(b1-4)GlcNAc(b1-6)GalNAc
# Procedure, shortened: (§1)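 Glycan array data came from 3228 arrays in the Consortium for Functional Glycomics database, and only arrays with an available protein sequence were kept. Glycan names were put into IUPAC-condensed notation, and columns mapping to the same glycan were averaged. The binding signal is a within-array Z-score, averaged across arrays of one protein sequence run at different concentrations or buffers and across linkers. A negative Z-score can be read as non-binding.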
# [2] = target: Fuc(a1-2)Gal(b1-4)GlcNAc6S
# Procedure, shortened: as §1
# [3] = target: Fuc(a1-2)Gal(b1-4)[Fuc(a1-3)]GlcNAc
# Procedure, shortened: as §1
# [4] = target: Fuc(a1-2)Gal(b1-4)[Fuc(a1-3)]GlcNAc(b1-2)Man(a1-3)[Fuc(a1-2)Gal(b1-4)[Fuc(a1-3)]GlcNAc(b1-2)Man(a1-6)]Man(b1-4)GlcNAc(b1-4)GlcNAc
# Procedure, shortened: as §1
# [5] = target: Fuc(a1-2)Gal(b1-4)[Fuc(a1-3)]GlcNAc(b1-2)Man(a1-3)[Fuc(a1-2)Gal(b1-4)[Fuc(a1-3)]GlcNAc(b1-2)Man(a1-6)]Man(b1-4)GlcNAc(b1-4)[Fuc(a1-6)]GlcNAc
# Procedure, shortened: as §1
# [6] = target: Fuc(a1-2)Gal(b1-4)[Fuc(a1-3)]GlcNAc(b1-2)[Fuc(a1-2)Gal(b1-4)[Fuc(a1-3)]GlcNAc(b1-4)]Man(a1-3)[Fuc(a1-2)Gal(b1-4)[Fuc(a1-3)]GlcNAc(b1-2)Man(a1-6)]Man(b1-4)GlcNAc(b1-4)GlcNAc
# Procedure, shortened: as §1
# [7] = target: Fuc(a1-2)Gal(b1-4)[Fuc(a1-3)]GlcNAc(b1-3)Gal(b1-4)[Fuc(a1-3)]GlcNAc
# Procedure, shortened: as §1
# [8] = target: Fuc(a1-2)Gal(b1-4)[Fuc(a1-3)]GlcNAc(b1-3)Gal(b1-4)[Fuc(a1-3)]GlcNAc(b1-3)Gal(b1-4)[Fuc(a1-3)]GlcNAc
# Procedure, shortened: as §1
# [9] = target: Fuc(a1-2)Gal(b1-4)[Fuc(a1-3)]GlcNAc(b1-3)GalNAc
# Procedure, shortened: as §1
# [10] = target: Fuc(a1-2)Gal(b1-4)[Fuc(a1-3)]GlcNAc(b1-3)[Neu5Ac(a2-6)Gal(b1-4)GlcNAc(b1-6)]Gal(b1-4)Glc
# Procedure, shortened: as §1
# [11] = target: Fuc(a1-2)Gal3S(b1-4)GlcNAc
# Procedure, shortened: as §1
# [12] = target: Fuc(a1-2)Gal6S(b1-3)GlcNAc
# Procedure, shortened: as §1
# [13] = target: Fuc(a1-2)Gal6S(b1-3)GlcNAc6S
# Procedure, shortened: as §1
# Fuc(a1-2)Gal6S(b1-4)Glc = target: Fuc(a1-2)Gal6S(b1-4)Glc
# Procedure, shortened: as §1
# [14] = target: Fuc(a1-2)Gal6S(b1-4)Glc6S
# Procedure, shortened: as §1
# [15] = target: Fuc(a1-2)Gal6S(b1-4)GlcNAc
# Procedure, shortened: as §1
# Fuc(a1-2)[Gal(a1-3)]Gal = target: Fuc(a1-2)[Gal(a1-3)]Gal
# Procedure, shortened: as §1
# [16] = target: Fuc(a1-2)[Gal(a1-3)]Gal(b1-3)GalNAc
# Procedure, shortened: as §1
# [17] = target: Fuc(a1-2)[Gal(a1-3)]Gal(b1-3)GalNAc(b1-3)Gal(a1-4)Gal(b1-4)Glc
# Procedure, shortened: as §1
# [18] = target: Fuc(a1-2)[Gal(a1-3)]Gal(b1-3)GlcNAc
# Procedure, shortened: as §1
# [19] = target: Fuc(a1-2)[Gal(a1-3)]Gal(b1-3)GlcNAc(b1-2)Man(a1-3)[Fuc(a1-2)[Gal(a1-3)]Gal(b1-3)GlcNAc(b1-2)Man(a1-6)]Man(b1-4)GlcNAc(b1-4)GlcNAc
# Procedure, shortened: as §1
# [20] = target: Fuc(a1-2)[Gal(a1-3)]Gal(b1-3)GlcNAc(b1-2)Man(a1-3)[Fuc(a1-2)[Gal(a1-3)]Gal(b1-3)GlcNAc(b1-2)Man(a1-6)]Man(b1-4)GlcNAc(b1-4)[Fuc(a1-6)]GlcNAc
# Procedure, shortened: as §1
# [21] = target: Fuc(a1-2)[Gal(a1-3)]Gal(b1-3)GlcNAc(b1-3)GalNAc
# Procedure, shortened: as §1
# [22] = target: Fuc(a1-2)[Gal(a1-3)]Gal(b1-3)GlcNAc(b1-6)GalNAc
# Procedure, shortened: as §1
# [23] = target: Fuc(a1-2)[Gal(a1-3)]Gal(b1-4)Glc
# Procedure, shortened: as §1
# [24] = target: Fuc(a1-2)[Gal(a1-3)]Gal(b1-4)GlcNAc
# Procedure, shortened: as §1
# [25] = target: Fuc(a1-2)[Gal(a1-3)]Gal(b1-4)GlcNAc(b1-2)Man
# Procedure, shortened: as §1
# [26] = target: Fuc(a1-2)[Gal(a1-3)]Gal(b1-4)GlcNAc(b1-2)Man(a1-3)[Fuc(a1-2)[Gal(a1-3)]Gal(b1-4)GlcNAc(b1-2)Man(a1-6)]Man(b1-4)GlcNAc(b1-4)GlcNAc
# Procedure, shortened: as §1
# [27] = target: Fuc(a1-2)[Gal(a1-3)]Gal(b1-4)GlcNAc(b1-2)Man(a1-3)[Fuc(a1-2)[Gal(a1-3)]Gal(b1-4)GlcNAc(b1-2)Man(a1-6)]Man(b1-4)GlcNAc(b1-4)[Fuc(a1-6)]GlcNAc
# Procedure, shortened: as §1
# [28] = target: Fuc(a1-2)[Gal(a1-3)]Gal(b1-4)GlcNAc(b1-3)GalNAc
# Procedure, shortened: as §1
# [29] = target: Fuc(a1-2)[Gal(a1-3)]Gal(b1-4)GlcNAc(b1-3)[Fuc(a1-2)[Gal(a1-3)]Gal(b1-4)GlcNAc(b1-6)]GalNAc
# Procedure, shortened: as §1
# [30] = target: Fuc(a1-2)[Gal(a1-3)]Gal(b1-4)GlcNAc(b1-6)GalNAc
# Procedure, shortened: as §1
# [31] = target: Fuc(a1-2)[Gal(a1-3)]Gal(b1-4)[Fuc(a1-3)]Glc
# Procedure, shortened: as §1
# [32] = target: Fuc(a1-2)[Gal(a1-3)]Gal(b1-4)[Fuc(a1-3)]GlcNAc
# Procedure, shortened: as §1
# [33] = target: Fuc(a1-2)[Gal(a1-3)]Gal(b1-4)[Fuc(a1-3)]GlcNAc(b1-3)GalNAc
# Procedure, shortened: as §1
# [34] = target: Fuc(a1-2)[Gal(a1-4)]Gal(b1-4)GlcNAc
# Procedure, shortened: as §1
# [35] = target: Fuc(a1-2)[GalNAc(a1-3)]Gal
# Procedure, shortened: as §1
# [36] = target: Fuc(a1-2)[GalNAc(a1-3)]Gal(b1-3)GalNAc(a1-3)[Fuc(a1-2)]Gal(b1-4)GlcNAc
# Procedure, shortened: as §1
binder,measurement,setting,value
B1,glycan array binding signal (z-score),[1],-0.265
same,glycan array binding signal (z-score),[2],-0.301
same,glycan array binding signal (z-score),[3],-0.294
same,glycan array binding signal (z-score),[4],-0.332
same,glycan array binding signal (z-score),[5],-0.272
same,glycan array binding signal (z-score),[6],-0.289
same,glycan array binding signal (z-score),[7],-0.283
same,glycan array binding signal (z-score),[8],-0.279
same,glycan array binding signal (z-score),[9],-0.275
same,glycan array binding signal (z-score),[10],-0.268
same,glycan array binding signal (z-score),[11],-0.27
same,glycan array binding signal (z-score),[12],-0.272
same,glycan array binding signal (z-score),[13],-0.262
same,glycan array binding signal (z-score),Fuc(a1-2)Gal6S(b1-4)Glc,-0.299
same,glycan array binding signal (z-score),[14],-0.287
same,glycan array binding signal (z-score),[15],-0.33
same,glycan array binding signal (z-score),Fuc(a1-2)[Gal(a1-3)]Gal,-0.295
same,glycan array binding signal (z-score),[16],-0.3
same,glycan array binding signal (z-score),[17],-0.275
same,glycan array binding signal (z-score),[18],-0.297
same,glycan array binding signal (z-score),[19],-0.284
same,glycan array binding signal (z-score),[20],-0.293
same,glycan array binding signal (z-score),[21],-0.288
same,glycan array binding signal (z-score),[22],-0.26
same,glycan array binding signal (z-score),[23],-0.298
same,glycan array binding signal (z-score),[24],-0.288
same,glycan array binding signal (z-score),[25],-0.26
same,glycan array binding signal (z-score),[26],-0.209
same,glycan array binding signal (z-score),[27],-0.288
same,glycan array binding signal (z-score),[28],-0.286
same,glycan array binding signal (z-score),[29],-0.12
same,glycan array binding signal (z-score),[30],-0.169
same,glycan array binding signal (z-score),[31],-0.298
same,glycan array binding signal (z-score),[32],-0.302
same,glycan array binding signal (z-score),[33],-0.297
same,glycan array binding signal (z-score),[34],-0.282
same,glycan array binding signal (z-score),[35],-0.273
same,glycan array binding signal (z-score),[36],-0.301
